The whole screen tested about 50,000 compounds, of which about 800 (1.6%) showed an effect of 50% or more. The list shows a part of the results.
The compounds below were run against Bcl-2-like protein 10 (Homo sapiens) (UniProt Q9HD36) (assay: TR3 peptide-Bcl-B binding displacers, biochemical primary FP assay, phenotype converters (AID 1240;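 also: 0% = Bcl-B with tracer peptide and DMSO and 100% = tracer peptide lacking Bcl-B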)). Conditions: GST-Bcl-B / FITC-TR3 peptide fluorescence polarization; stronger effect = higher value; compound at 3.75 mg/L.
Chain of UniProt Q9HD36 (Q9HD36 whole entry, looked up): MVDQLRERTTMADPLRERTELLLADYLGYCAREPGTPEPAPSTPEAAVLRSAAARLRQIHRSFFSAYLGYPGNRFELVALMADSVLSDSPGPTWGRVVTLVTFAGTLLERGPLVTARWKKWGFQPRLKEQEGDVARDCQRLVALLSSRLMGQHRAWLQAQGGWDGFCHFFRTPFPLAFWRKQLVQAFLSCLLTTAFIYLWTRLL

Row | SMILES | displacement [%]
1 | Cc1ccc(S(=O)(=O)N2CCN(Cc3ccccc3[N+](=O)[O-])CC2)cc1 | 7.8
2 | O=C(C1CCCCC1)N(Cc1ccccc1)Cc1ccccc1 | -9.6
3 | Cc1cccc(NC(=O)C2C(c3ccccc3)=C2c2ccccc2)c1C | 5.5
4 | CCC(=O)Nc1nc(C)c(-c2csc(Nc3cc(C)ccn3)n2)s1 | 11.9
5 | COC(=O)c1ccc(/C=N/NC(=O)CC2C(=O)NN=C2C)cc1 (centres undefined) | -0.1
6 | CCOC(=O)c1ccc(N2C(=O)c3ccc(C(=O)Nc4ccc(O)cc4C(=O)O)cc3C2=O)cc1 | -1.6
7 | Cc1cc(NC(=O)c2cccc3ccccc23)ccc1NC(=O)c1ccccc1 | -3.8
8 | c1ccc(CNc2nc(-c3ccccc3)cc(-c3ccccc3)n2)cc1 | -0.9
9 | COc1cc(C(c2ccc(C)o2)c2ccc(C)o2)c(O)c([N+](=O)[O-])c1 | 11.9
10 | COc1cccc(C2C(C(=O)OCCc3ccccc3)=C(C)NC3=C2C(=O)CCC3)c1OC (centres undefined) | -0.3
11 | CCCc1c(C)nc2ccc(OC)cc2c1Cl | 2.9
12 | O=C(Cc1ccc(Cl)cc1)NCc1ccncc1 | -6
13 | O=P(O)(OC(c1ccccc1)C(F)(F)F)c1ccccc1 (centres undefined) | 13.1
14 | O=C1NC(=S)S/C1=C\c1ccc(Oc2ccc([N+](=O)[O-])cn2)cc1 | 61.8
15 | Cc1ccoc1C(=O)Nc1cccc2ccccc12 | -7
16 | CCC(CC)N=C1NS(=O)(=O)c2cc([N+](=O)[O-])ccc21 | -3
17 | O=C(COc1ccc(Br)cc1)Nc1ccncc1 | -10.1
18 | CCC(C)NC(=O)c1ccc(CN2CCN(c3ccccc3)CC2)cc1 (centres undefined) | -1.9
19 | Cc1cc(NC(=O)c2cc(Cl)ccc2Cl)ccc1NC(=O)c1ccco1 | 8.8
20 | O=C(/C=C\Nc1ccccc1O)c1ccc2c(c1)OCO2 | 8.3
21 | O=C(N/N=C/c1cc([N+](=O)[O-])c(N2CCOCC2)cc1N1CCOCC1)c1cccnc1 | 8.4
22 | Cc1nc(SCc2ccccc2)nc2ccccc12 | 13.5

Row | SMILES | displacement [%]
23 | COc1cccc(N2C(=O)C3C4C=CC(C4=C4CCCCC4)C3C2=O)c1 (centres undefined) | -4.9
24 | COc1ccc(N(CC(=O)Nc2c(C)n(C)n(-c3ccccc3)c2=O)S(=O)(=O)c2ccc(C)cc2)cc1 | 7.2
25 | O=C(NCCCN1CCOCC1)c1cnn2c(C(F)(F)F)cc(-c3cccs3)nc12 | 14.4
26 | O=C(Cc1ccccc1)Nc1ccc(Cl)cc1C(=O)O | 9.8
27 | C/C(=N\N=C1\NC(=O)C(CC(=O)Nc2ccc(C)c(Cl)c2)S1)c1ccc(F)cc1 (centres undefined) | 9.4
28 | COc1cccc(NC(=O)c2sc(-c3ccccc3)nc2C)c1 | 14.2
29 | CCOc1cc(OCC)cc(C(=O)Nc2ccc(C(=O)OC)cc2)c1 | -1
30 | CCOC(=O)c1c(NC(=O)/C=C/c2cccc([N+](=O)[O-])c2)sc2c1CCC2 | 24
31 | COc1ccc(Cl)cc1NC(=O)COc1c(C)cc(C)cc1C | 7.8
32 | O=C(CCCC(=O)OCC(F)(F)C(F)F)Nc1nccs1 | 9.8
33 | CCc1cc2c(N3CCN(Cc4ccccc4)CC3)ncnc2s1 | -6.3
34 | COc1ccc(C(NC=O)c2ccc(OC)c(OC)c2)cc1 (centres undefined) | -3
35 | COc1cc(/C=N/NC(=O)COc2ccccc2C)c(Br)c(Br)c1O | 3.8
36 | O=C1CCC(C(=O)Nc2ccc(Cl)cc2)N1 (centres undefined) | 11
37 | COC(=O)c1c(NC(=O)COc2ccccc2)sc2c1C(C(=O)OC)CC2 (centres undefined) | -12.5
38 | NC(=O)N/N=C1\NC(=O)/C(=C\c2ccccc2)S1 | 25.7
39 | COCCN1C(=O)C(=O)/C(=C(/O)c2ccccc2)C1c1cccc(F)c1 (centres undefined) | -12.7
40 | CN1C(=O)C(=Cc2ccc(OCc3cccc(C(=O)O)c3)cc2)C(=O)N(C)C1=O | 13.1
41 | Cc1cc(OCCCCN2CCC(C)CC2)ccc1Cl | -3.2
42 | CCOc1ccc(/C=C2\C(=O)C(C(=O)OC)=C(C)N2c2ccc(F)cc2)cc1 | -6.6
43 | COc1ccc(CNS(=O)(=O)Cc2ccccc2)cc1 | -4.6
44 | O=C(NCC1CCCO1)c1cc(-c2ccccc2)nc2ccccc12 (centres undefined) | -7.9

Row | SMILES | displacement [%]
45 | Cc1cc(NC(=O)CCc2ccccc2)no1 | 5.7
46 | COc1ccc(CNC(=O)C(=O)Nc2ccc(Cl)c(C(F)(F)F)c2)cc1 | -7.4
47 | O=C(/C=C/c1ccco1)Nc1scc(-c2cccs2)c1C(=O)O | 39.5
48 | COc1ccc(/C=N/NC(=O)CSc2n[nH]c(=O)[nH]c2=O)cc1 | -12.9
49 | NC(=O)c1c(NC(=O)c2ccc(-c3ccccc3)cc2)sc2c1CCCC2 | 6.1
50 | Nc1nc(SCc2ccc(Cl)cc2)nc2sc3c(c12)CCN(Cc1ccccc1)C3 | 16.8
51 | CN(C)/C=N/n1cnc2scc(-c3ccc(Cl)cc3)c2c1=O | 10.9
52 | COC(=O)c1cc(NC(=O)c2cccc(N(C)C)c2)cc(C(=O)OC)c1 | -12.3
53 | O=C(COc1ccc2c3c(c(=O)oc2c1)CCC3)c1ccc(-c2ccccc2)cc1 | 13.4
54 | CN1CCN(CC(=O)N2c3ccccc3Sc3ccccc32)CC1 | -3.8
55 | CCN(CC)c1ccc(N2C(=O)/C(=C/c3ccc(C(=O)O)cc3)SC2=S)cc1 | -0.4
56 | CCCCCCOc1ccc(N2C(=O)CC(N3CCC(C(N)=O)CC3)C2=O)cc1 (centres undefined) | 4.6
57 | COc1ccc(C(=O)Cn2cnc3c(C#N)c4n(c3c2=O)CCCCC4)cc1 | -1.9
58 | COc1ccc(C)cc1NC(=O)C(=O)NCCc1ccccc1 | -4.4
59 | CSc1ccc(S(=O)(=O)NCCSc2nc3ccccc3s2)cc1 | 1.6
60 | COC(=O)C1=C(C)N(C)C(C)=C(C(=O)OC)C1c1cccc(Cl)c1Cl | -7.4
61 | CCOC(=O)c1c(NC(=O)c2ccc(S(=O)(=O)N3CCOCC3)cc2)sc2c1CCC2 | 2.2
62 | CCOC(=O)c1ccc(NC2=C(C(=O)C(F)(F)F)CCCC2)cc1 | 1.2
63 | C=CCNC(=O)c1ccc(C(=O)c2cc(OC)ccc2OC)cc1 | -6.5
64 | O=C(/C=C/c1ccc(Cl)cc1)NCCc1nc2ccccc2[nH]1 | -8.7
65 | CC1S/C(=N\N=C\c2ccccc2F)NC1=O (centres undefined) | -16.3
66 | COc1ccc(CC(=O)NCc2ccc3c(c2)OCO3)cc1OC | -17.6

Row | SMILES | displacement [%]
67 | COc1ccc(CCNC(=O)CN(c2cc(C)cc(C)c2)S(=O)(=O)c2ccc(OC)c(OC)c2)cc1OC | -1.6
68 | CCOc1ccccc1NC(=O)COc1ccc(C(C)(C)C)cc1 | 1.4
69 | COc1ccc(N2C(=O)C(Cl)=C(Nc3ccc(F)cc3)C2=O)cc1 | 11.4
70 | COc1cc(C=C2C(=O)NC(=O)NC2=O)ccc1OCCSc1ccc(C)cc1 | 64.1
71 | Cc1ccc(-c2ccc(C=C3C(=O)N(C)C(=O)N(C)C3=O)o2)cc1[N+](=O)[O-] | 2.2
72 | CCOc1cc(C=C2C(=O)NC(=S)NC2=O)ccc1OCCOc1ccccc1OC | 5
73 | Cc1ccc(C(=O)NC2Sc3ccccc3N=C2c2ccccc2)cc1 (centres undefined) | 12.1
74 | O=C(Nc1cc(Cl)cc(Cl)c1)c1ccc2c(c1)OCO2 | -5.4
75 | N#C/C(=C/c1ccc(-c2cc(Cl)ccc2Cl)o1)C(=O)O | 2
76 | CCOC(=O)Nc1ccc(S(=O)(=O)Nc2ncccn2)cc1 | -2.2
77 | COc1ccc(CCN=C(C)C2=C(O)CSC2=O)cc1OC | 5.5
78 | CC1(C)COC(COc2ccc(Cl)cc2)=N1 | 4.8
79 | Cc1nn(-c2ccccc2)c(C)c1Sc1ccc(Br)cc1 | -7.3
80 | c1ccc(C(c2ccccc2)c2nc3ccccc3[nH]2)cc1 | 10.3
81 | O=C(c1ccccc1F)N1CCN(c2ccc([N+](=O)[O-])c(N3CCOCC3)c2)CC1 | 12.3
82 | Clc1ccc(-c2nc(-c3ccncc3)no2)c(Cl)c1 | 4.9
83 | C=CCc1cccc(/C=N/c2ncccc2O)c1O | 46.1
84 | C=CCSc1nc2sc3c(c2c(=O)[nH]1)CCC3 | -4.5
85 | O=C(O)C1CCCCC1C(=O)Nc1ccccn1 (centres undefined) | -14.2
86 | COc1ccc(-c2nnc(SCC(=O)NCCOc3ccccc3)n2-c2ccccc2)cc1 | 1.5
87 | CCOc1cccc(C=NN2CCN(c3ccc(Cl)cc3)CC2)c1O | -8.1
88 | CC(C)(C)c1cc(Br)ccc1OCC(=O)NCc1ccccc1 | -11.8

Row | SMILES | displacement [%]
89 | Cc1cc(C)n(C(=O)CNC(=O)c2ccc(Br)cc2)n1 | 19.4
90 | CCOC(=O)C1=C(C)N=c2s/c(=C\c3ccco3)c(=O)n2C1c1ccccc1 (centres undefined) | 16.5
91 | COc1ccc(C(=O)NCCOc2ccccc2)c(OC)c1OC | -13
92 | O=C(O)CCCCCCCCCCN1C(=O)/C(=C/c2ccc(Br)cc2)SC1=S | 5.7
93 | COc1ccc(-c2noc(COc3ccccc3C)n2)cc1 | 0.4
94 | Cc1cc([N+](=O)[O-])ccc1-c1ccc(C(=O)Nc2ccccc2O)o1 | 13.5
95 | CC1(C)SSC(=O)C1NC(=O)c1ccccc1 (centres undefined) | 18.6
96 | CCN(CC)c1ccc(/C=C2/C(=O)NN(c3cccc(Cl)c3)C2=O)c(O)c1 | 1.9
97 | CS(=O)(=O)N(Cc1ccccc1)c1ccc(C(=O)N[C@@H]2C[C@H]3CC[C@@H]2C3)cc1 | -4.2
98 | COc1ccc(OCC(=O)Nc2ccc(NC(=O)c3ccco3)cc2)cc1 | 3
99 | O=C1C(=O)N(c2cccc(Cl)c2)C(c2ccc(F)cc2)/C1=C(\O)c1ccccc1 (centres undefined) | 1.9
100 | CC1=C(C(=O)Nc2ccc(Cl)cc2)C(c2ccc(C)cc2)NC(=O)N1 (centres undefined) | -9.3
101 | CCN(CC)S(=O)(=O)c1cc(C(=O)NCc2ccccc2)ccc1Br | -15.5
102 | O=C(Cc1ccc(-c2ccccc2)cc1)NNC(=O)c1cccc(Cl)c1 | -7.3
103 | O=C(Nc1ccccc1C(=O)N1CCN(Cc2ccccc2)CC1)c1ccc([N+](=O)[O-])cc1 | 10.8
104 | O=C(N/N=C/c1cccc([N+](=O)[O-])c1)C1COc2ccccc2O1 (centres undefined) | -1.2
105 | Cc1ccccc1N1CCN(C(=S)c2ccc(Cl)cc2)CC1 | 10.6
106 | Cc1ccc(S(=O)(=O)N(CCc2ccccc2)CC(=O)NCc2ccco2)cc1 | 11
107 | CCOc1ccc(N(CC(=O)N[C@@H]2C[C@H]3CC[C@@H]2C3)S(C)(=O)=O)cc1 | 6.3
108 | COc1ccccc1C(=O)NC(NC(=O)c1ccccc1OC)c1ccc(Br)cc1 | 6.9
109 | COc1cccc(N2C(=O)NC(=O)/C(=C/C=C/c3ccccc3)C2=O)c1 | 3.9

Source: PubChem BioAssay AID1240 (Sanford-Burnham Center for Chemical Genomics, 2008)
